These are yes or no findings as the source states them, for the method shown. Binding seen in cells or lysates may run through a third protein. Some results given as binding are weak or reduced against the parent protein; the word gives no strength.

Sequences of proteins named here, by UniProt entry; tags and fusion partners are left off. A change or cut given only in a name is not applied to a line headed by its entry. A line that says so, or that is headed by a name, gives the form on record, which may keep a tag or linker. Residues count along the entry.
UniProt Q9UBN7: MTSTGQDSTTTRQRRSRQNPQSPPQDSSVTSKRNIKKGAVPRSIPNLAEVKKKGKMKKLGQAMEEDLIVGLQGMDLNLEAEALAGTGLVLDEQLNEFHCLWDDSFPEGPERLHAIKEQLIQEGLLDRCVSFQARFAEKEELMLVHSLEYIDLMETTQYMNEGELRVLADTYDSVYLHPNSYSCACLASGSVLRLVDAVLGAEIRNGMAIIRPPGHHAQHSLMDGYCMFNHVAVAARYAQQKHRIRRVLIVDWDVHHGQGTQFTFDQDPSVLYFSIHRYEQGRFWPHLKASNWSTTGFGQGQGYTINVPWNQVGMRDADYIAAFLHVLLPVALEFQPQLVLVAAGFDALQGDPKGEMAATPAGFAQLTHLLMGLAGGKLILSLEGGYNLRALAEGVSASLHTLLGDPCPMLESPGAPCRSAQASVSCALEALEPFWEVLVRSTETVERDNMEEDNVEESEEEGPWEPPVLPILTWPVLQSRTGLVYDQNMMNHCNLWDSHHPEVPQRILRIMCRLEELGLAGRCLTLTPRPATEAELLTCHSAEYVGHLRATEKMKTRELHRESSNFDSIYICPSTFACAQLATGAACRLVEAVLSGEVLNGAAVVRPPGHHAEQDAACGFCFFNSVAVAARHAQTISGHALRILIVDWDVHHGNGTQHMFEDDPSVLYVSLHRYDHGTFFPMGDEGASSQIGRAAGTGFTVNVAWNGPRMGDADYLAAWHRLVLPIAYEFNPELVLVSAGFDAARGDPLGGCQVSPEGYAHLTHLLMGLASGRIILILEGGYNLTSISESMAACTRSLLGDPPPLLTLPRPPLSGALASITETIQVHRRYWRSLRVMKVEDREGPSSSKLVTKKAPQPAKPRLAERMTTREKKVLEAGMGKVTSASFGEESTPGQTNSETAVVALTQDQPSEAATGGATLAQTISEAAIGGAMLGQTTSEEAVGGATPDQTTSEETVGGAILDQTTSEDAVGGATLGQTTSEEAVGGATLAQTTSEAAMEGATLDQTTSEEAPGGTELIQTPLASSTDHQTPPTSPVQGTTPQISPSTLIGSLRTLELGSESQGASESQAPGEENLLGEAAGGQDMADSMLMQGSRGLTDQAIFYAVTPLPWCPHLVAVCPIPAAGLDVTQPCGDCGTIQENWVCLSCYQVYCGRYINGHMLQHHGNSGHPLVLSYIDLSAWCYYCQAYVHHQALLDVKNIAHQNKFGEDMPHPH
HDAC6 Catalytic Domain 2 (CD2, aa 435-835), Flag-tagged: residues 435-835 of Q9UBN7
UniProt Q86WV6: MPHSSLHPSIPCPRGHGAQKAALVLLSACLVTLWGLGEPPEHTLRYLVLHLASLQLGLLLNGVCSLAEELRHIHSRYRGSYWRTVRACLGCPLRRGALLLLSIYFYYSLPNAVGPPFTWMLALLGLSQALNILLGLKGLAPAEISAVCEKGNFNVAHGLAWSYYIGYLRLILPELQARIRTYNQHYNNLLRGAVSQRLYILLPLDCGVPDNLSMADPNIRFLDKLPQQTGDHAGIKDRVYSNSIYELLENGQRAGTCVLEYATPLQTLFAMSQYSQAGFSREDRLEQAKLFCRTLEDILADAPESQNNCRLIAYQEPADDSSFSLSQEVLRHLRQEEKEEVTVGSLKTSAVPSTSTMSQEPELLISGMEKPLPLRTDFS
UniProt Q8N884: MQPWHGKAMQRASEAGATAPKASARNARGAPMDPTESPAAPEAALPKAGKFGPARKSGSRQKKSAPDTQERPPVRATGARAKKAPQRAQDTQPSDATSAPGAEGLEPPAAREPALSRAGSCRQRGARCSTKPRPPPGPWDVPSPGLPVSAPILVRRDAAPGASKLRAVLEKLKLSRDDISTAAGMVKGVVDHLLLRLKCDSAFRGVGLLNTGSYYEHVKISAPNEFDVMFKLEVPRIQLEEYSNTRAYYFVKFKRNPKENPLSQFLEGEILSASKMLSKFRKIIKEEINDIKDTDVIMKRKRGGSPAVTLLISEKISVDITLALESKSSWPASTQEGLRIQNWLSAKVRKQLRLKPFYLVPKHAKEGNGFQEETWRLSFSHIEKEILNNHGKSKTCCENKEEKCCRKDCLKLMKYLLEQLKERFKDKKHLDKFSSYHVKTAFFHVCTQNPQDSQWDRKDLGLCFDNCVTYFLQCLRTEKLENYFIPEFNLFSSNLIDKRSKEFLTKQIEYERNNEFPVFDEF

This note sets out measurements from paper PMC12666567.

The target of assay [1] is Flag-tagged histone deacetylase 6 (HDAC6) (human) (UniProt Q9UBN7). The assay is described as follows: co-IP; HEK293T cells co-transfected with tagged plasmids; lysed in IP buffer (20 mM Tris, pH 7.5, 150 mM NaCl, 1% Triton X-100) with protease/deacetylase/phosphatase inhibitors; anti-tag antibody (FLAG, HA) at 4 °C overnight, Protein A/G magnetic beads, Western blotting; in Fig. 4C with or without co-expressed Flag-HDAC6. Background: Immunoblotting shows a protein as a band on a membrane.

Assay [2] concerns the target HDAC6 Catalytic Domain 2 (CD2, aa 435-835), Flag-tagged (human) (UniProt Q9UBN7). Described as above.
Assay [3] addresses STING, endogenous in THP-1 cells (human (endogenous in THP-1)) (UniProt Q86WV6). The assay is described as follows: co-IP; endogenous proteins in THP-1 cell lysate; immunoprecipitated with anti-STING antibody (IgG as control), probed for HDAC6 and STING.

Regarding “HA-tagged stimulator of interferon genes (STING), full length (from UniProt Q86WV6 1-379)”, the binding entry in assay [1] and in assay [2] was “binds” each time.
For the substance “HDAC6, endogenous in THP-1 cells (from UniProt Q9UBN7 1-1215) (enzyme)”, the binding entry in assay [3] is reported as “binds”.
As for “STING cGAMP-Binding Domain (CBD, aa 150-379), HA-tagged (from UniProt Q86WV6 150-379) (domain or fragment)”, in assay [1], the binding result was “binds”.
On the same count and under the same terms, next, “cyclic GMP-AMP synthase (cGAS) (from UniProt Q8N884 1-522) (enzyme)”: “no binding”.
